Test results taken from PubChem BioAssay AID488969 (Vanderbilt High Throughput Screening Facility, 2010).
Whole data set: some 110,000 compounds, median “z-score” near -0.1, cut for the highest 2% near 2. Some of the results follow. Active and inactive are the calls of the source.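 Rule for the calls: active = z-score in the third read window above 3 or below -3; inactive = the rest.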

These molecules were tested against Metabotropic glutamate receptor 8 (Rattus norvegicus) (UniProt P70579) (assay: rat mGluR8 modulators via GIRK flux, primary screen, cell-based, thallium flux, HTS (AID 488969)). Details: HEK293 rat mGluR8, GIRK (G protein-gated inwardly rectifying potassium channel) thallium flux, FluoZin2; at 10 µM; stronger effect = higher value; submaximal glutamate (EC20) added with thallium.
Chain of UniProt P70579 (P70579 whole entry, looked up): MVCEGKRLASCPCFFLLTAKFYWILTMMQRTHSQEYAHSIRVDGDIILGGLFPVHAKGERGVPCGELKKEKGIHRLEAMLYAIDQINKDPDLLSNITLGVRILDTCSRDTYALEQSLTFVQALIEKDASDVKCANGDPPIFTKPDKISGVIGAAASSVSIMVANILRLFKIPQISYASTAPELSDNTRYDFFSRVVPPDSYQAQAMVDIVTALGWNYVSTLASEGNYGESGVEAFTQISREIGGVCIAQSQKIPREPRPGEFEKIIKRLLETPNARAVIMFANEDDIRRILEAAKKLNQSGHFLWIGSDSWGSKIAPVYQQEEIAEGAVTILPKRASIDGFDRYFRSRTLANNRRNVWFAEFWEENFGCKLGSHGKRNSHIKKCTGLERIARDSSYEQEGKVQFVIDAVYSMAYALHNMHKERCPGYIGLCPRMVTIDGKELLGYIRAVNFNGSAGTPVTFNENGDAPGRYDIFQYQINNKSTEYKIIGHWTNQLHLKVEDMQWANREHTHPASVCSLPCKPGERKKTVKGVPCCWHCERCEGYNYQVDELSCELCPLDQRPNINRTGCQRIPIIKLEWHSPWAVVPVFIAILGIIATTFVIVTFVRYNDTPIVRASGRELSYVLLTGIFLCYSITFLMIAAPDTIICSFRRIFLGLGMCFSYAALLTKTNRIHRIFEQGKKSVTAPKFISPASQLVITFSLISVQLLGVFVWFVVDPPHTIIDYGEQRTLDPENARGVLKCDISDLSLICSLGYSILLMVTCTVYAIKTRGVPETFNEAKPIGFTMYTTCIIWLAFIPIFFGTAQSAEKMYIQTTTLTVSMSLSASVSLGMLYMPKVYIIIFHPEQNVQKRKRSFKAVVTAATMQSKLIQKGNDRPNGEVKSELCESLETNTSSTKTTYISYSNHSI

| Compound | z-score |
| --- | --- |
| N=c1sccn1CC(=O)NCCc1ccc(Cl)cc1 | -0.154 |
| CCCCNC(=O)c1ccc(CNc2c(N3CCC(C(=O)OCC)CC3)c(=O)c2=O)cc1 | -0.576 |
| Cc1cc(OCC(=O)Nc2ccc(S(=O)(=O)NC3=NCCCCC3)cc2)c(C(C)C)cc1Cl | -0.263 |
| COc1ccc(Cl)c(NCCC(=O)O)c1 | -0.0772 |
| CC(=O)N(C)c1ccc(OCC(O)CN(Cc2ccco2)S(=O)(=O)c2ccc(C)cc2)cc1 (stereo not drawn) | -0.189 |
| COc1ccc2oc(/C=C/N(C)C)c(C(=O)c3ccc(Cl)cc3)c2c1 | -0.209 |
| O=C(CSc1c[nH]c2ccccc12)NCC1CCCO1 (stereo not drawn) | -0.0605 |
| COC(=O)c1ccccc1NC(=O)NCc1ccccn1 | 0.207 |
| CCOC(=O)c1oc2ccccc2c1NC(=O)COC | -0.0593 |
| Cc1ccc(NC(=O)CNC(c2ccccc2)c2ccccc2)c(F)c1 | 0.49 |
| COc1ccc2nc(NC(=O)c3cccc(S(=O)(=O)N4CCOCC4)c3)sc2c1 | 0.184 |
| O=C(NCc1ccco1)c1ccc(NC(=O)C2COc3ccccc3O2)cc1 (stereo not drawn) | -0.216 |
| COc1cccc(CN2CCN(Cc3cc(OC)c(OC)cc3[N+](=O)[O-])CC2)c1 | -0.0472 |
| O=C(NCCO)c1ccc2nc(-c3ccco3)c(-c3ccco3)nc2c1 | -0.361 |
| Cc1sc2ncnc(NCC(c3ccco3)N3CCCC3)c2c1C (stereo not drawn) | -1.17 |
| COc1cccc(-c2nc(=S)c3c(n2CCCO)CCCC3)c1 | -0.0149 |
| O=C(Oc1cccc2cccnc12)c1ccc(Br)o1 | 0.13 |
| CCc1cc2c(SCC(=O)C(C#N)=C3N(C)c4ccccc4N3C)ncnc2s1 | -0.0221 |
| CC(Sc1nc(N)cc(=O)[nH]1)C(=O)NC1CCCCC1 (stereo not drawn) | 0.226 |
| COc1ccccc1N1CCN(C(=O)Oc2ccccc2)CC1 | -0.574 |
| CC(C)OCC(O)CSc1ccccn1 (stereo not drawn) | -0.878 |
| CCn1c(-c2ccccc2Cl)nn(CC(=O)Nc2ccc(OC)cc2)c1=S | -0.291 |

| Compound | z-score |
| --- | --- |
| CCN(CC)C(=O)C1CCN(S(=O)(=O)c2cccc3nonc23)CC1 | -0.0914 |
| CC(N1CCOC1=O)S(=O)(=O)c1ccccc1 (stereo not drawn) | 0.123 |
| CCOc1ccc(Cn2c(C)nc([N+](=O)[O-])c2SCC(O)CCl)cc1[N+](=O)[O-] (stereo not drawn) | -0.132 |
| Cc1cccc(C)c1NC(=O)COc1ccc2c(C)c(Cc3ccccc3)c(=O)oc2c1 | -0.696 |
| Cc1ccc(CNc2nc3ccccc3n3cnnc23)cc1 | 0.49 |
| CCOC(=O)N1CCC(n2c(SCC(=O)Nc3ccccc3OC)nc3ccccc3c2=O)CC1 | 1.34 |
| CCCCNC(=S)N(C)/N=C/c1ccccc1C(=O)O | -0.276 |
| CN(C1CCCCC1)S(=O)(=O)c1ccc2c(c1)c(=O)c(C(=O)NCCCN1CCCC1)cn2C | 0.269 |
| CS(=O)(=O)c1ccc(C(=O)NCC2(N3CCCCC3)CCCCC2)cc1 | 0.176 |
| C/C(=N\Nc1ccc(C(F)(F)F)cn1)c1ccc(S(=O)(=O)NCc2ccco2)cc1 | 0.277 |
| CN(C)S(=O)(=O)c1ccc(C(=O)NCCOc2ccccc2)cc1 | -0.0108 |
| CC1(C)Cc2c(c(N3CCOCC3)nc3sc(-c4ccc(C(=O)O)o4)c(N)c23)CO1 | -0.251 |
| CCc1cc2c(=O)c(-c3nc4ccccc4[nH]3)coc2c(CN2CCC(C)CC2)c1O | 0.303 |
| COC(=O)C1=C(C(=O)c2ccccc2)C(c2cccs2)n2nnnc2N1 (stereo not drawn) | -0.165 |
| O=S(=O)(/N=C(/Nc1cc(N2CCOCC2)ncn1)c1ccccc1)c1ccccc1 | 0.0637 |
| CC(=O)c1ccc(NC(=O)CSc2nnc(Cc3cccn3C)n2-c2ccc(F)cc2)cc1 | -0.575 |
| Cc1ccc(NC(=O)COC(=O)c2cccc3c(=O)c(C)c(-c4ccccc4)oc23)cc1 | -0.395 |
| Cc1c(=O)n(OCc2c(F)cccc2F)c2ccccc2[n+]1[O-] | 0.393 |
| O=S(=O)(Nc1ccc2c(c1)OCCO2)c1ccc(Br)s1 | -0.108 |
| Cn1nnnc1SCC(=O)NC(=O)Cc1ccccc1 | -0.477 |
| CC(NS(=O)(=O)c1ccc(F)cc1)C(c1cccs1)N1CCN(C)CC1 (stereo not drawn) | 0.0443 |
| Cc1ccc(NC(=O)CCC(=O)c2ccc(F)cc2)cc1Cl | -0.444 |

| Compound | z-score |
| --- | --- |
| CCOC(=O)Cn1c(=O)n(Cc2ccco2)c(=O)c2ccc(C(=O)NC3CCCC3)cc21 | -0.443 |
| N/C(=N\OS(=O)(=O)c1ccc2ccccc2c1)c1ccncc1 | -0.234 |
| CC(C)CCOC(=O)C1[C@H]2C(=O)N(Cc3cccs3)C[C@]23C=C[C@H]1O3 (stereo partly drawn) | 0.173 |
| C(=N\Nc1nn[nH]n1)/c1ccccc1 | 0.055 |
| Cc1nn2c(NCCCN(C)C)c3c(nc2c1-c1ccccc1)CCC3 | active: 3.36 |
| CCCOc1ccc(C(=O)CCC(=O)OCC(=O)N2CC(=O)Nc3ccccc32)cc1 | -0.534 |
| O=C(Nc1cccc(Cl)c1)Nc1nnc(-c2ccccc2)o1 | 1.11 |
| Cc1nnc2ccc(N3CCN(C(=O)c4ccccc4)CC3)nn12 | 0.0411 |
| O=C(c1nc2ncccn2n1)N1CCc2ccccc2C1 | -0.128 |
| CN1CCN(S(=O)(=O)c2cccc(C(=O)N(c3ccccn3)C3CCCCC3)c2)CC1 | 0.694 |
| O=C(OC(C(=O)NC1CCCC1)c1ccccn1)c1cccs1 (stereo not drawn) | 0.998 |
| CCOC(=O)c1cnc2ccc(OCC)cc2c1NCc1ccccc1 | 0.483 |
| Cc1ccc(C)c(Cn2cnc3c(cnn3C(C)(C)C)c2=O)c1 | -1.53 |
| CCN=c1scc(-c2ccco2)n1/N=C/c1ccc(O)cc1 | active: 6.24 |
| CC1(c2ccc3c(c2)OCO3)NC(=O)N(CC(=O)NCCC2=CCCCC2)C1=O (stereo not drawn) | 1.97 |
| CCCCN(CC)CCCNC(=O)CS(=O)(=O)Cc1nc(-c2cccc(OC)c2)oc1C | active: 3.63 |
| CCOc1cc(N2CCOCC2)c(OCC)cc1NC(=O)CN1CCc2ccccc2C1 | -0.463 |
| CCOC(=O)c1sc(NC(=O)/C=C/c2cnn(C)c2C)c(C(=O)OCC)c1C | -0.293 |
| COc1ccc(Cl)cc1N1C(=O)C2CCCN2C1c1ccccc1F (stereo not drawn) | -0.409 |
| COc1cc(OC)c(NC(=O)c2cccc(F)c2)cc1Cl | -0.155 |
| O=C(COC(=O)c1cccc(Cl)c1Cl)NCCN1C(=O)CSC1=O | -0.642 |
| Cc1cc(C)n(CC(O)COc2ccccc2C(=O)Nc2ccccc2)n1 (stereo not drawn) | -0.873 |

| Compound | z-score |
| --- | --- |
| Cc1cc(NC(=O)C2C3C(=O)N(CC4CCCO4)C(C(=O)NCc4ccccc4)C34C=CC2(C)O4)no1 (stereo not drawn) | 0.0734 |
| Cc1nnc(C)n1/N=C/c1ccccn1 | -0.443 |
| CCOc1ccc(NC(=O)C(c2ccccn2)N(C(=O)CCl)c2ccc(OCC)cc2)cc1 (stereo not drawn) | -0.0387 |
| O=c1cc(-c2ccccc2)n(S(=O)(=O)c2ccc3ccccc3c2)o1 | -0.169 |
| CCOC(=O)c1ccccc1NC(=O)Cn1cnc2c(nnn2-c2ccc(C)cc2)c1=O | -0.607 |
| Cc1ccccc1NC(NC(=O)c1cccnc1)C(Cl)(Cl)Cl (stereo not drawn) | -0.513 |
| O=C(CSc1nnc(CCc2nc3ccccc3[nH]2)n1-c1ccccc1)NCc1ccco1 | -1.56 |
| COc1ccc(C(=O)Nc2c(N)nc(SCC(=O)N3CCC(C)CC3)[nH]c2=O)cc1OC | -0.0942 |
| O=C(NCC(c1cccnc1)N1CCOCC1)c1ccc2c(c1)OCO2 (stereo not drawn) | -0.152 |
| O=S(=O)(Nc1ncnc2sc3c(c12)CCC3)c1ccc(Cl)s1 | 0.439 |
| CC(N=c1ccccn1C(=O)Nc1cccc(C(F)(F)F)c1)c1ccco1 (stereo not drawn) | 1.15 |
| c1cncc(-c2nnc3sc(-c4ccco4)nn23)c1 | 0.394 |
| COc1ccc(N2C(=O)C3CC=C(Cl)CC3C2=O)cc1 (stereo not drawn) | -1.14 |
| O=[N+]([O-])c1cc2c(cc1C=Nc1ccccc1)OCO2 | -0.0132 |
| CCc1ccc(-c2nc(NC(=O)c3ccc(OCC(=O)Nc4ccc(F)cc4)c(OC)c3)sc2C)cc1 | 0.304 |
| CSc1ccc(S(=O)(=O)N2CCCC2)cc1 | -0.542 |
| CC(C)(C)C1CCc2[nH]c3ccccc3c(=O)c2C1 (stereo not drawn) | -0.984 |
| CCOc1ccc(NC(=S)NC(=O)/C=C/c2ccc(OC)cc2)c([N+](=O)[O-])c1 | -0.516 |
| COc1ccccc1/C=N/NC(=O)CC(=O)Nc1ccc(Cl)c(Cl)c1 | 0.199 |
| Cc1ccc2c(CC(=O)OC3CCOC3=O)coc2c1 (stereo not drawn) | -0.361 |
| COc1ccc(S(=O)(=O)N2CCOCC2)cc1NC(=O)Cc1c(Cl)cccc1Cl | -0.238 |
| O=C(NCCCCc1ccccc1)C12CN(Cc3ccccc3)CC1C(c1cccc([N+](=O)[O-])c1)=NO2 (stereo not drawn) | -0.04 |

| Compound | z-score |
| --- | --- |
| CCOC(=O)CSc1nc(C)cc(=O)[nH]1 | -0.356 |
| Cc1c(C(=O)c2ccc(Cl)c(Cl)c2)cnc2cc3c(cc12)OCO3 | 0.71 |
| C/C(Cn1cnc([N+](=O)[O-])n1)=N\NC(=O)c1ccccc1 | 0.154 |
| Cc1cccc2nc(CSCc3ccco3)cn12 | -0.381 |
| Cc1ccc(-c2nc(=S)c3c(n2CCN2CCOCC2)CC(C)(C)OC3)cc1 | 0.463 |
| CCN1CCN(c2nc(-c3cccs3)nc3ccccc23)CC1 | -1.11 |
| Cc1ccc(SCc2ccc(C(=O)Nc3ccccc3Br)cc2)cc1 | -0.123 |
| Cn1cc(S(=O)(=O)CC(=O)Nc2ccc3c(c2)OCO3)c2ccccc21 | 0.535 |
| CCCOc1ccc(CNC(=S)N/N=C/c2ccc([N+](=O)[O-])cc2)cc1 | 0.602 |
| Cc1csc(NC(=O)c2cc3c(s2)-c2ccccc2OC3)n1 | -0.25 |
| COc1cc(CNCCc2c[nH]c3ccccc23)ccc1OCc1ccccc1F | 0.911 |
| COc1ccc(CCn2c(-c3ccco3)nc3nc4ccccc4nc32)cc1 | -0.965 |
| Cc1cc(C)n2c(SCc3cccs3)nnc2n1 | -0.407 |
| CCOc1cc(-c2cc(-c3ccc(C)cc3)nc(N)c2C#N)ccc1O | -0.244 |
| O=C(CN1CCN(S(=O)(=O)c2ccc(Br)cc2)CC1)Nc1ccc2c(c1)OCO2 | 0.0794 |
| Cn1c(C(O)c2ccc(Cl)cc2)nc(Cl)c1Cl (stereo not drawn) | -0.505 |
| O=C(Nc1ccc(NC(=O)c2ccco2)cc1)c1ccc2c(c1)OCO2 | -0.42 |
| Cc1ccc(NC(=O)CSc2nnc3n2CCCCC3)cc1 | -0.177 |
| C/C(N)=C(/C#N)C(=O)COC(=O)C1Cc2ccccc2CN1S(C)(=O)=O (stereo not drawn) | -0.748 |
| Cc1ccc(CN2CCN(CC3CC4C=CC3C4)CC2)cc1 (stereo not drawn) | 0.139 |
